This is one part of the list. The energies were worked out here from pooled read counts, against the library average; single values are noisy.
Biological target: T1, Pho4 (S. cerevisiae) (UniProt P07270)
T1 sequence: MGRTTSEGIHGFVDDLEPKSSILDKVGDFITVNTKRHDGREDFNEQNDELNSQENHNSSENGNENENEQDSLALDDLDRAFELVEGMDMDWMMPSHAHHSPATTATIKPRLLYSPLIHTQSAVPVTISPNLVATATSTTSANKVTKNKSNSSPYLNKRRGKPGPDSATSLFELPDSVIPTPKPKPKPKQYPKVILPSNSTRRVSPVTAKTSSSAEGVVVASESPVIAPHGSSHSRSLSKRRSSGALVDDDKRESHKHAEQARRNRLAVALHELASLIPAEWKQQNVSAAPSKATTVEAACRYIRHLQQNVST
Assay: relative binding free energy (BET-seq); higher = weaker binding
Settings: reference: library average

| Sequence | relative binding free energy [kcal/mol] |
| --- | --- |
| TTAGTCACGTGATATT | 0.38 |
| ATCATCACGTGAAGGG | 0.23 |
| GGGGCCACGTGAGATG | 0.17 |
| AAGGTCACGTGGCATG | 0 |
| AGAGTCACGTGATAGT | 0.24 |
| GTTGGCACGTGGACGT | -0.11 |
| GTCGTCACGTGGTACG | 0.2 |
| AGTAGCACGTGTATTG | -0.14 |
| TTATGCACGTGTGATA | -0.04 |
| GGGTGCACGTGGGATT | -0.01 |
| TTGCGCACGTGGGATG | -0.17 |
| TTTTACACGTGTAGGG | 0.11 |
| CGTTTCACGTGAGTCG | 0.5 |
| GAGTTCACGTGGGCAG | 0.3 |
| AGTCGCACGTGGTTGC | -0.04 |
| TGAGTCACGTGTCGGT | 0 |
| ACGTTCACGTGAGGGG | 0.31 |
| TTATCCACGTGGGCAG | -0.05 |
| GGAATCACGTGGTTCT | 0.24 |
| AGAGGCACGTGGGGGT | -0.23 |
| TATGCCACGTGTATTG | -0.06 |
| TAGGACACGTGTACGG | 0.08 |
| GTGTTCACGTGTTTGG | 0.36 |
| CTGGACACGTGGGGTC | -0.02 |
| TAATGCACGTGTGGAC | 0.13 |
| ATGAACACGTGAAGGT | 0.3 |

| Sequence | relative binding free energy [kcal/mol] |
| --- | --- |
| AGGGACACGTGCGGAT | 0 |
| TTTATCACGTGCGAGG | 0.14 |
| AAATGCACGTGGAAGT | 0.1 |
| ATAGGCACGTGGAGGG | -0.1 |
| AGGTACACGTGGGCAA | 0.01 |
| TTGCGCACGTGGTGTA | -0.32 |
| TTTATCACGTGTATGC | 0.18 |
| AGTTCCACGTGTAGTG | -0.08 |
| AAGTGCACGTGATATT | 0.02 |
| ATTGACACGTGGGTAC | -0.15 |
| GATTACACGTGTTTTC | 0.4 |
| AAGGACACGTGAGCGT | 0.3 |
| CTGGGCACGTGCTTTT | -0.17 |
| GGTTGCACGTGTTCTT | 0.13 |
| GTCAGCACGTGTAATG | 0.14 |
| TTTCTCACGTGAGGGT | 0.23 |
| GTGTTCACGTGTATAT | 0.29 |
| GGTAGCACGTGGGGGT | -0.15 |
| TGCGACACGTGATTGG | 0.04 |
| ATATACACGTGGGGAT | -0.2 |
| ATCTGCACGTGTTGGG | 0.1 |
| GTGTACACGTGGAGGG | 0.01 |
| GTCGTCACGTGAATGT | 0.18 |
| GTTCACACGTGAAGTG | 0.21 |
| AGATTCACGTGCTGGG | 0.29 |
| GATTGCACGTGTTTGA | 0.15 |

| Sequence | relative binding free energy [kcal/mol] |
| --- | --- |
| ATGGTCACGTGAGAGT | 0.29 |
| GGACTCACGTGGTTTT | 0.23 |
| GATGTCACGTGGCGAG | 0.2 |
| GATTTCACGTGATGGG | 0.52 |
| AGAGGCACGTGAGTGG | 0 |
| TGGTCCACGTGGCTGG | -0.14 |
| TGATTCACGTGAAGGT | 0.4 |
| TGACACACGTGGTTTA | 0.04 |
| TGTTGCACGTGCCATG | -0.1 |
| CATGTCACGTGGGTGT | -0.24 |
| GCTTACACGTGGGTGG | 0.03 |
| GGGAACACGTGAGGCG | 0.27 |
| ACTGGCACGTGTCAGT | 0.1 |
| TGGAGCACGTGGGGGC | -0.15 |
| TAGTCCACGTGTCTGG | 0.03 |
| GTACGCACGTGTTTTG | -0.04 |
| TCATGCACGTGGCTGG | -0.14 |
| ACAGTCACGTGGAGGA | 0.1 |
| TAGGGCACGTGTGGAA | -0.02 |
| TAGTTCACGTGAATGT | 0.4 |
| TTTGGCACGTGAGTCG | 0.04 |
| TGTTACACGTGGGGTT | 0.02 |
| GCTGCCACGTGGGGAG | -0.2 |
| TGTGGCACGTGAGCAT | 0.09 |
| GATGTCACGTGGTTTG | 0.25 |
| GAGTTCACGTGTATCG | 0.32 |

| Sequence | relative binding free energy [kcal/mol] |
| --- | --- |
| GGGGTCACGTGAAAAT | 0.49 |
| ATTACCACGTGGGTTT | -0.15 |
| TGAGGCACGTGGGCGA | -0.36 |
| GCTGTCACGTGGTCTT | 0.08 |
| GGGTCCACGTGGTTTA | -0.14 |
| ACTGGCACGTGTGGTA | -0.02 |
| GGTTTCACGTGCTGGC | 0.39 |
| CAGGGCACGTGGGAAT | -0.11 |
| AACATCACGTGTAGGT | 0.15 |
| TGTATCACGTGTGACG | 0.34 |
| GAGGGCACGTGCCTGG | -0.1 |
| TTTTACACGTGTATTG | 0.18 |
| CTGTGCACGTGGCTTG | -0.18 |
| GTATACACGTGTTTTG | -0.03 |
| GGGAGCACGTGGCTTA | -0.11 |
| AGGTACACGTGAGTAT | 0.28 |
| ATGTTCACGTGCTCTT | 0.25 |
| AAGGTCACGTGTGTGA | 0.21 |
| GTGGTCACGTGTCGGG | 0.3 |
| GTGCGCACGTGAAGGA | 0.23 |
| TGGGTCACGTGGTCTG | 0.08 |
| AGAGTCACGTGGGACT | 0.15 |
| CGAATCACGTGATTGT | 0.34 |
| GGGGGCACGTGTGGAA | -0.05 |
| ATGGACACGTGTAATT | 0.16 |
| TATTGCACGTGAGAAG | 0.06 |

| Sequence | relative binding free energy [kcal/mol] |
| --- | --- |
| TTTTGCACGTGATCTT | 0.03 |
| TTGTTCACGTGTACAA | 0.29 |
| TTATACACGTGTTGAA | 0.03 |
| GTTAGCACGTGTTGAC | 0.05 |
| AGAGCCACGTGGTGGG | -0.14 |
| AGCTTCACGTGAGGTA | 0.44 |
| GTGTGCACGTGGGAGA | -0.07 |
| ATGGTCACGTGTGCTA | 0.05 |
| TTAGTCACGTGAGGGC | 0.29 |
| TATCTCACGTGAGTTA | 0.5 |
| GTGTGCACGTGCGTGA | -0.14 |
| TTGCACACGTGTGCGG | 0.04 |
| CGGTGCACGTGCGGTT | -0.01 |
| GGGAACACGTGTGAGG | 0.17 |
| GAAGGCACGTGAGCGG | 0.02 |
| TGAGGCACGTGGCAGA | -0.11 |
| TCTGTCACGTGGGCAT | -0.01 |
| ATATACACGTGGTGCT | -0.1 |
| TGTGACACGTGATGGG | 0.04 |
| TGTGGCACGTGATGAG | 0.03 |
| GTATGCACGTGTGTTG | 0.02 |
| TACATCACGTGGTATG | 0.02 |
| GGTTTCACGTGGTTCG | 0.41 |
| GGGGACACGTGCCGGT | -0.2 |
| TTTACCACGTGTTTGT | -0.1 |
| TTATACACGTGGTAGC | -0.06 |

| Sequence | relative binding free energy [kcal/mol] |
| --- | --- |
| TAATTCACGTGGCTTT | 0.32 |
| AGGGGCACGTGCACTG | -0.2 |
| TTTGCCACGTGGAGTG | -0.15 |
| ATAATCACGTGTACTT | 0.21 |
| ATATCCACGTGTTGGT | 0 |
| TGTGGCACGTGGGTCT | -0.18 |
| CTTTTCACGTGGAGGT | 0.18 |
| CGATTCACGTGTTAAT | 0.32 |
| ACTGTCACGTGTTCGT | 0.24 |
| TTATACACGTGCTGTT | 0.01 |
| TAAGTCACGTGGCGAG | -0.02 |
| AGGATCACGTGATTAG | 0.37 |
| TGCATCACGTGGTGGC | 0.07 |
| GTTTGCACGTGTTGTA | 0.1 |
| TGTGTCACGTGAACAG | 0.21 |
| GTGTCCACGTGAAGGG | 0.31 |
| CGGGACACGTGGGCTA | -0.01 |
| CGTAACACGTGTGTTA | -0.06 |
| TATGTCACGTGTTCGA | 0.05 |
| CTGTCCACGTGCTGGG | 0.06 |
| ATAAACACGTGAGTGG | 0.3 |
| CGTGCCACGTGGGTGG | -0.3 |
| CGGGTCACGTGTCGAG | 0.04 |
| GGGATCACGTGTGGAT | 0.2 |
| TTTCACACGTGGAGTG | 0.22 |
| CGATTCACGTGGGGTG | 0.26 |

| Sequence | relative binding free energy [kcal/mol] |
| --- | --- |
| TTTGTCACGTGTAGTA | 0.24 |
| CGTAGCACGTGGGTTT | -0.26 |
| TAGTGCACGTGCTCTT | -0.05 |
| ATACTCACGTGATGGG | 0.13 |
| GGGAGCACGTGTATAA | -0.04 |
| GGGGCCACGTGTATGG | -0.05 |
| TGGGACACGTGAAGGA | 0.3 |
| AGGTTCACGTGAGTGA | 0.31 |
| GCGTGCACGTGTTTAG | -0.02 |
| GGTATCACGTGCATGA | 0.24 |
| GTTTACACGTGGCGAG | 0.03 |
| CGGAGCACGTGCGGGT | -0.21 |
| GTGCACACGTGAGAGT | 0.51 |
| ATGAACACGTGATTGT | 0.15 |
| ATCGTCACGTGTTCGG | 0.11 |
| TGTGCCACGTGCTGTT | -0.24 |
| TTTGCCACGTGGATTT | 0.03 |
| GAGTTCACGTGGGAAA | 0.31 |
| TTGTGCACGTGGACCG | -0.03 |
| GTGTTCACGTGTGCCG | 0.19 |
| AGGGGCACGTGACGAT | 0.05 |
| TATTTCACGTGGAGGG | 0.28 |
| GTGCGCACGTGAAGAG | 0.33 |
| GGAGTCACGTGTTGAG | 0.18 |
| TAATTCACGTGGGAAA | 0.3 |
| AAGCGCACGTGATGGT | 0.16 |

| Sequence | relative binding free energy [kcal/mol] |
| --- | --- |
| CGTGACACGTGATAGG | 0 |
| AGTATCACGTGTCTTG | 0.14 |
| ATATACACGTGTCTTG | 0 |
| AGTAGCACGTGGGGGA | -0.18 |
| AAAGCCACGTGTAGGG | -0.11 |
| TCGTGCACGTGTCGAT | 0.09 |
| GGCTTCACGTGGTGGA | 0.22 |
| TCGTTCACGTGTTTTC | 0.27 |
| CGGTTCACGTGTGATG | 0.29 |
| ACGTTCACGTGTATAT | 0.2 |
| GAATGCACGTGTTTGG | 0.23 |
| CAAAACACGTGAGGGT | 0.31 |
| CGTGGCACGTGGGATT | -0.17 |
| AGTTTCACGTGAAGGC | 0.36 |
| CATTTCACGTGTCGTG | 0.29 |
| GCGTGCACGTGGTCTT | -0.05 |
| TATTGCACGTGTGAAA | -0.01 |
| GTTTGCACGTGTAACG | 0.26 |
| CTGGGCACGTGCGTTG | -0.09 |
| TGAGCCACGTGTTTGT | -0.14 |
| GGTAACACGTGTGGCT | 0.07 |
| TTTTGCACGTGGATCA | 0.04 |
| GAGGGCACGTGAGTGA | 0.25 |
| GGTTACACGTGTGTTG | 0.12 |
| GGGAGCACGTGGATGT | -0.01 |
| GTTTACACGTGGTTGC | 0.18 |

| Sequence | relative binding free energy [kcal/mol] |
| --- | --- |
| TGTGTCACGTGTCTCG | 0.02 |
| AGAGACACGTGGGGGT | -0.18 |
| GGTGTCACGTGGAGTT | 0.18 |
| ATGCTCACGTGGATGG | 0.15 |
| TTTTACACGTGGAAAG | 0.08 |
| TGAGACACGTGTTTGT | 0.07 |
| TTGAACACGTGTACGT | 0.15 |
| GATTACACGTGATTGA | 0.27 |
| AGCGTCACGTGGATTG | 0.03 |
| CGTAGCACGTGTTTAT | -0.16 |
| AGCATCACGTGATTTG | 0.35 |
| TTTGGCACGTGGCTCG | -0.07 |
| GTTTGCACGTGTGGGC | 0.18 |
| GGCAACACGTGAGGTA | 0.45 |
| AAGTACACGTGTGGGG | 0.18 |
| GCTTGCACGTGATGGT | 0.13 |
| TTGAACACGTGTGGTT | 0.04 |
| TCTTTCACGTGTATAT | 0.18 |
| TGGTTCACGTGACAAG | 0.26 |
| CATGTCACGTGGTTCG | 0.01 |
| CGGGACACGTGCGTGT | -0.12 |
| CTGTGCACGTGGGGCG | -0.24 |
